Data as given in patent US10889573B2, “Anthelmintic quinoline-3-carboxamide derivatives” (Bayer Animal Health GMBH, priority 2016, dated 2021).
Where two headings read alike, the source gives them in different places. Some results were stated once for a whole list of compounds, not compound by compound. At least one compound was matched to its structure with a doubt left.

Tests used:
Cooperia curticei = settings: after 5 days
[1] = test system: Nippostrongylus brasiliensis; test: In vitro assay 2: Nippostrongylus brasiliensis (NIPOBR), acetylcholine esterase readout; settings: 1 μg/ml
Procedure, shortened: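 Adult worms, washed in saline with antibiotics/antimycotic, were incubated in medium with compound (DMSO stock) at 10 μg/ml (10 ppm) or 1 μg/ml (1 ppm). Acetylcholine esterase activity in a medium aliquot was measured against a negative control as the anthelmintic readout.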

Haemonchus contortus = settings: after 5 days

SMILES	activity (larval mortality) (Cooperia curticei; 4 ppm) [%]	activity (larval mortality) (Cooperia curticei; 20 ppm) [%]	activity (reduction of AChE compared to negative control) [1]	activity (larval mortality) (Haemonchus contortus; 4 ppm) [%]	activity (larval mortality) (Haemonchus contortus; 20 ppm) [%]
C=C(C)c1c(C(=O)N[C@H]2CCOc3ccccc32)cnc2c(-c3cc(Cl)cc(Cl)c3)cccc12 [Example 357]	90	100	higher than 80%	90	90
O=C(N[C@H]1CCOc2ccccc21)c1cnc2c(-c3cc(Cl)cc(Cl)c3)cccc2c1C1CC1 [Example 358]	90	90	higher than 80%	90	90
COc1cc(-c2cccc3c(N(C)C)c(C(=O)N[C@H]4CCOc5ccccc54)cnc23)c(F)cn1 [Example 377]	–	100	higher than 80%	80	100
CC(C)c1c(C(=O)N[C@H]2CCOc3ccccc32)cnc2c(-c3cc(Cl)cc(Cl)c3Cl)cccc12 [Example 386]	100	100	higher than 80%	100	100
COc1cc(-c2cccc3c(N(C)C)c(C(=O)N[C@H]4CCOc5ccccc54)cnc23)c(Cl)cn1 [Example 400]	80	90	higher than 80%	90	90
CC(C)c1c(C(=O)N[C@H]2CCOc3ccccc32)cnc2c(-c3cccc(OC(F)(F)F)c3)cccc12 [Example 407]	100	100	higher than 80%	90	100
CC(C)c1c(C(=O)N[C@H]2CCOc3ccccc32)cnc2c(-c3cc(Cl)ccc3F)cccc12 [Example 410]	100	100	higher than 80%	100	100
CC(C)c1c(C(=O)N[C@H]2CCOc3ccccc32)cnc2c(-c3cc(F)cc(Cl)c3)cccc12 [Example 419]	90	100	higher than 80%	80	80
CC(C)c1c(C(=O)N[C@H]2CCOc3ccccc32)cnc2c(-c3cccc(C(F)(F)F)c3Cl)cccc12 [Example 420]	100	100	higher than 80%	–	80
CC(C)c1c(C(=O)N[C@H]2CCOc3ccccc32)cnc2c(-c3cccc(F)c3Cl)cccc12 [Example 421]	100	100	higher than 80%	90	90
CC(C)c1c(C(=O)N[C@H]2CCOc3ccccc32)cnc2c(-c3cc(Cl)sc3Cl)c(F)ccc12 [Example 426]	100	100	higher than 80%	80	–
CN(C)Cc1c(C(=O)N[C@H]2CCOc3ccccc32)cnc2c(-c3cc(Cl)cc(Cl)c3)cccc12 [Example 432]	–	80	higher than 80%	–	80
CN(C)c1c(C(=O)N[C@H]2CCOc3ccccc32)cnc2c(-c3cc(C#N)ccc3Cl)cccc12 [Example 435]	90	90	higher than 80%	90	90
Cc1cc(Cl)c(F)c(-c2cccc3c(C(C)C)c(C(=O)N[C@H]4CCOc5ccccc54)cnc23)c1 [Example 444]	80	90	higher than 80%	80	90
CC(C)c1c(C(=O)N[C@H]2CCOc3ccccc32)cnc2c(-c3ccc(F)c(Cl)c3)cccc12 [Example 446]	90	90	higher than 80%	–	80
CC(C)c1c(C(=O)N[C@H]2CCOc3ccccc32)cnc2c(-c3cc(F)c(F)c(F)c3)cccc12 [Example 449]	100	100	higher than 80%	80	90

SMILES	activity (larval mortality) (Cooperia curticei; 4 ppm) [%]	activity (larval mortality) (Cooperia curticei; 20 ppm) [%]	activity (reduction of AChE compared to negative control) [1]	activity (larval mortality) (Haemonchus contortus; 4 ppm) [%]	activity (larval mortality) (Haemonchus contortus; 20 ppm) [%]
CC(C)c1c(C(=O)N[C@H]2CCOc3ccccc32)cnc2c(-c3cc(F)cc(F)c3F)cccc12 [Example 450]	100	100	higher than 80%	90	100
Cc1ccc(C(F)(F)F)cc1-c1cccc2c(C(C)C)c(C(=O)N[C@H]3CCOc4ccccc43)cnc12 [Example 451]	100	100	higher than 80%	90	90
CC(C)c1c(C(=O)N[C@H]2CCOc3ccccc32)cnc2c(-c3cc(Cl)ccc3Cl)cccc12 [Example 453]	100	100	higher than 80%	80	90
CC(C)c1c(C(=O)N[C@H]2CCOc3ccccc32)cnc2c(-c3cc(Cl)cc(Cl)c3)c(F)ccc12 [Example 455]	100	100	higher than 80%	100	100
CN(C)c1c(C(=O)N[C@H]2CCOc3ccccc32)cnc2c(-c3c(Cl)cncc3Cl)cccc12 [Example 460]	–	80	higher than 80%	–	90
N#Cc1ccc(Cl)c(-c2cccc3c(N4CCOCC4)c(C(=O)N[C@H]4CCOc5ccccc54)cnc23)c1 [Example 464]	90	100	higher than 80%	–	80
CN(C)c1c(C(=O)N[C@H]2CCOc3ccccc32)cnc2c(-c3cc(Cl)ccc3Cl)cccc12 [Example 469]	90	90	higher than 80%	80	90
Cc1cc(-c2cccc3c(N(C)C)c(C(=O)N[C@H]4CCOc5ccccc54)cnc23)cc(Cl)n1 [Example 473]	–	90	higher than 80%	–	80
CN(C)c1c(C(=O)N[C@H]2CCOc3ccccc32)cnc2c(-c3ccnc(Cl)c3Cl)cccc12 [Example 476]	90	90	higher than 80%	90	90
CC(C)c1c(C(=O)N[C@H]2CCOc3ccccc32)cnc2c(-c3cccc(Cl)c3Cl)c(F)ccc12 [Example 477]	100	100	higher than 80%	100	100
CC(C)c1c(C(=O)N[C@H]2CCOc3ccccc32)cnc2c(-c3cccc(OC(F)(F)F)c3)c(F)ccc12 [Example 479]	100	100	higher than 80%	80	80
CC(C)c1c(C(=O)N[C@H]2CCOc3ccccc32)cnc2c(-c3cc(F)cc(F)c3F)c(F)ccc12 [Example 487]	100	100	higher than 80%	90	100
CC(C)c1c(C(=O)N[C@H]2CCOc3ccccc32)cnc2c(-c3cccc(C(F)(F)F)c3)c(F)ccc12 [Example 488]	100	100	higher than 80%	100	100
O=C(N[C@H]1CCc2ccccc21)c1cnc2c(-c3cccc(Cl)c3Cl)c(F)ccc2c1N1CCOCC1 [Example 491]	80	90	higher than 80%	–	80
COc1ccc(-c2cccc(Cl)c2Cl)c2ncc(C(=O)N[C@H]3CCOc4ccccc43)c(N3CCOCC3)c12 [Example 496]	100	100	higher than 80%	100	100
